According to article PMC4336329 (PLoS ONE, 2015):
Screen size: about 310,000 compounds; about 14,000 (4.5%) showed an effect of 50% or more. Effects have a minus sign here. The list shows a part of the results.

target: human ether-à-go-go-related gene (hERG) potassium channel (human, UniProt Q12809); experiment: primary screen, population patch clamp on CHO cells stably expressing hERG
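Note: peak tail current of the secondary pulse compared with the same well before compound.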

Chain of human ether-à-go-go-related gene (hERG) potassium channel (Q12809 whole entry, looked up): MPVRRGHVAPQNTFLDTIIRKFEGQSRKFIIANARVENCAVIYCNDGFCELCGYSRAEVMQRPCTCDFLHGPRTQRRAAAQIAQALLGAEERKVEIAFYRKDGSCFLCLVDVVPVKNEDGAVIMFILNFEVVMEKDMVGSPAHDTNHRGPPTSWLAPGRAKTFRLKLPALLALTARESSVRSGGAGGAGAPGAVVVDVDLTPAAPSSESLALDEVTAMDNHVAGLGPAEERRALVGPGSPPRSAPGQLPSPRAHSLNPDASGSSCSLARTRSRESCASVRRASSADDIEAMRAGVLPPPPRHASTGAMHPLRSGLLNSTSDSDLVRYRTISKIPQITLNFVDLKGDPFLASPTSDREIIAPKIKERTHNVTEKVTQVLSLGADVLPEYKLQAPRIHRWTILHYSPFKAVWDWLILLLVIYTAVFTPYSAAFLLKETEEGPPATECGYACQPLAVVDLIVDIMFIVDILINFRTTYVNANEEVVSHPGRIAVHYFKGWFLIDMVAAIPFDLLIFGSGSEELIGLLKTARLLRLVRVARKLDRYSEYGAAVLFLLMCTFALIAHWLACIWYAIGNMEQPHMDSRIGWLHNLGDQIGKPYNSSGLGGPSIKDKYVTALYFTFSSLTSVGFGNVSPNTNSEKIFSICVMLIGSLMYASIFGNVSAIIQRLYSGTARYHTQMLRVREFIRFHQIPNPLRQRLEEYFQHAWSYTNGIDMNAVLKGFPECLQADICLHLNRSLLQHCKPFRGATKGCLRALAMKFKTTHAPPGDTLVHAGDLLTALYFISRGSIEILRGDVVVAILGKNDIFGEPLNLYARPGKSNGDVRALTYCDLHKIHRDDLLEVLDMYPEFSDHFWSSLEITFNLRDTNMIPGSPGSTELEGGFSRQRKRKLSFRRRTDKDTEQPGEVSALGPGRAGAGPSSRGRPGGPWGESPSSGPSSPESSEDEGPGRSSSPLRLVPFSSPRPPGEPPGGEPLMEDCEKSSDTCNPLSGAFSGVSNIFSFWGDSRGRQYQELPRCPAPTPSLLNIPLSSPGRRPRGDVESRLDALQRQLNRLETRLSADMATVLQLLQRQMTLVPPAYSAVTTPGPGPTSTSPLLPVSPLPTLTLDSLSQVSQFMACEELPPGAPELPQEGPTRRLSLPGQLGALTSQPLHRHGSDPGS

Structure (SMILES) | hERG current change (%, negative = inhibition) at 10uM [%]
COc1cc(NC(=O)CSc2nc3c(c(=O)n(C)c(=O)n3C)n2C)cc(OC)c1 | 2.2
Cc1nc(-n2[nH]c3c(c2=O)CCCC3)[nH]c(=O)c1Cc1ccccc1 | -0.389
Cc1cc2cc(CNC(=O)Cc3ccc([N+](=O)[O-])cc3)ccc2n1C | 9.49
Cc1cc2c3nonc3ccc2n1-c1ccccc1 | 15.9
Cc1cc(C)cc(NC(=O)c2ccc3nc[nH]c3c2)c1 | 14.7
Cc1ccc(C2c3c(oc4ccc(Cl)cc4c3=O)C(=O)N2CCCN2CCOCC2)o1 (centres unmarked) | -30
CCC1(C)N=C(N)Nc2nc3cc(C)c(C)cc3n21 (centres unmarked) | 15.3
CCOc1ccccc1-n1c(SCC(=O)N(CC)CC)nnc1-c1ccccn1 | -0.998
Cc1ccsc1C(=O)C1CCCN(Cc2cccc(-n3cccn3)c2)C1 (centres unmarked) | -65.4
Cc1ccc(S(=O)(=O)N(C)CC(=O)N2CCCCCC2)cc1 | 19.5
COc1ccc(C(=O)Nc2nnc(S(=O)(=O)N3CCOCC3)s2)cc1 | -3.02
O=c1oc2cc(Br)ccc2n1CSC1=NCCS1 | 5.69
O=C(c1ccccc1F)N1CCN(S(=O)(=O)c2ccc(S(=O)(=O)N3CCCCC3)cc2)CC1 | 4.29
CCOc1cc(OCC)cc(C(=O)NC(=S)Nc2cccc(C(F)(F)F)c2)c1 | 8.42
O=C(Cc1ccsc1)Nc1ccc(S(=O)(=O)C(F)F)cc1 | -8.71
COc1ccc(/C=N/NC(=O)c2c(C)nc3ccc(Br)cn23)cc1OC | -0.597
CCn1c(SCC(=O)NC2=NCCS2)nnc1C(C)NC(=O)c1ccc(Cl)cc1 (centres unmarked) | 14.2
Nc1nc(CSC(=S)N2CCN(c3ccccc3)CC2)nc(Nc2ccc(F)cc2)n1 | 2.14
S=C(NCCc1ccccc1)N1CCN(C(c2ccccc2)c2ccccc2)CC1 | -9.97
CC(=O)Nc1cc(Cl)ccc1OS(=O)(=O)c1ccc(C)cc1 | 6.28
CCCCNCc1cccn1-c1ccccc1.O=C(O)C(=O)O | 1.78
O=C(NCC(c1cccnc1)N1CCN(c2ccc(F)cc2)CC1)c1ccc(F)cc1 (centres unmarked) | -47.6

Structure (SMILES) | hERG current change (%, negative = inhibition) at 10uM [%]
COc1cccc(CC(=O)OCC(=O)NNC(=O)c2ccc([N+](=O)[O-])cc2)c1 | -38.1
COc1ccc(NS(=O)(=O)c2cc(C)ccc2NC(=O)c2cc(C)oc2C)cc1 | 2.49
CN(C)c1cc(-c2ccc([N+](=O)[O-])cc2)oc(=O)c1Cl | -18.5
O=C(Nc1ccc(Nc2ccccc2)cc1)Nc1ccccc1Cl | 1.14
COc1cccc(CN2CCN(c3ncccn3)CC2)c1OC | -3.3
Cc1cc(C(=O)CCl)c(C)n1CCc1ccc(Cl)cc1 | 14.1
O=c1c2c3c(sc2ncn1/N=C/c1ccncc1)CCCC3 | 12.4
COc1ccc(N(CC(=O)N2CCN(Cc3ccc4c(c3)OCO4)CC2)S(C)(=O)=O)cc1OC | 9.47
CCC(c1nnnn1Cc1ccccc1)N(Cc1cc2cc(OC)ccc2[nH]c1=O)CC1CCCO1 (centres unmarked) | -22.3
CCc1cccc(NC(=O)CCC(=O)O)c1 | 7.15
CSc1cccc(NC(=S)N(Cc2ccccc2)Cc2ccccn2)c1 | -6.65
Cc1ccccc1C(=O)Nc1ccc(C(=O)N/N=C/c2ccc(O)c(Br)c2)cc1 | -2.99
CCOC(=O)CNC(=O)c1ccccc1Br | 6.04
COC(=O)C1=C(C)NC(=O)NC1c1ccccc1 (centres unmarked) | 1.45
CCOC(=O)CSc1nc2ccccc2c(=O)n1CCCCCC(=O)NCc1ccco1 | -33.8
Cn1c(N)c(Sc2ccc([N+](=O)[O-])cc2)c(=O)n(C)c1=O | -17.7
CC(C)(C)CC(=O)NCc1ccc(F)cc1 | -13
CC(=O)N(c1c(C)n(C)n(-c2ccccc2)c1=O)C1(C(=O)NC2CCCC2)CCCCC1 | -8.96
O=C(Nc1ccc(Nc2ccccc2)cc1)c1ccc(Cl)cc1Cl | 2.93
O=c1ccc(-c2ccccc2)no1 | 5.52
CC[C@@H]1[C@H]2CCCC(=O)N3CC[C@@H](C[C@@H]1OC(=O)NCc1ccccc1)[C@@H]23 | -5.22
Cc1ccc(C(=O)NC2CCCCCC2)cc1N1CCCC1=O | -3.64

Structure (SMILES) | hERG current change (%, negative = inhibition) at 10uM [%]
COc1ccc(C2SCC(=O)N2c2ccc(C)cc2)cc1 (centres unmarked) | 18.3
c1ccc2c(c1)OCC(c1nnc3sc(-c4cnccn4)nn13)O2 (centres unmarked) | -15.1
CC(CCn1cccn1)NC(=O)CCc1nnc(CCc2ccccc2)o1 (centres unmarked) | 3.9
Cc1ccc(N2C(=O)C3CCC(C)(C2=O)C3(C)C)cc1C (centres unmarked) | 26.4
O=C(N/N=C/c1ccc2c(c1)OCO2)C(=O)Nc1ccccc1 | 8.24
COc1ccc(C(=O)OC(C)C(=O)NC(C)CCc2ccccc2)cc1OC (centres unmarked) | -2.04
NS(=O)(=O)c1cc2c(cc1C(F)(F)F)NCNS2(=O)=O | -8.3
COc1ccc(OCC(=O)N/N=C/C2CC=CCC2)cc1 (centres unmarked) | 0.345
CC(C)N(C(=O)Cn1cc(SCC(=O)N2CCCC2)c2ccccc21)C(C)C | -27.3
CC1(C)Oc2ccc3ccc(=O)oc3c2C(/C=N/O)=C1Cl | 14.7
CC(C)N(Cc1nc(-c2ccccc2)no1)C(=O)CN1C(=O)c2ccccc2C1=O | -5.09
COc1ccc2c(c1)OC[C@H]1[C@H]2N2C(=O)CN(Cc3ccco3)C(=O)[C@@]2(C)[C@H]1c1ccccc1 | 10.7
CSCC(=O)N1CCc2ccc(NC(=O)c3ccccc3Cl)cc2C1 | -31.9
CC(NC(=O)OCc1ccccc1)C(=O)NCC1CCCO1 (centres unmarked) | 4.14
CC(/C=C/c1ccccc1)=N\Nc1nc2c(c(=O)[nH]c(=O)n2C)n1CCO | -0.388
O=C(CSc1ccc2nnc(-c3ccc(F)cc3)n2n1)N1CCCc2ccccc21 | -16
CCn1cc(/C=C(\NC(=O)c2ccccc2F)C(=O)NCCCN2CCOCC2)c2ccccc21 | 1.67
CCN(CC)S(=O)(=O)c1cc(NC(=O)C(C)N(C)CC(=O)Nc2c(C)cccc2C)ccc1C (centres unmarked) | -15.4
CC(=O)N(CCCCN1C(=O)c2ccccc2C1=O)c1ccc(C)cc1 | -34.5
Oc1cccc(/C=N/N2CCN(C3c4ccccc4-c4ccccc43)CC2)c1 | 7.98
COc1ccc(C2(c3ccc(OC)cc3)NC(=O)N(CC(=O)Nc3ccccc3C(F)(F)F)C2=O)cc1 | 9.73
COc1cccc(CC(NC(C)=O)C(=O)NC2CCN(c3ncccc3[N+](=O)[O-])CC2)c1 (centres unmarked) | 29.3

Structure (SMILES) | hERG current change (%, negative = inhibition) at 10uM [%]
COC(=O)c1ccc(COC(=O)c2cc3ccccc3oc2=O)cc1 | 14.9
O=C(NC1CCCCCC1)c1ccc(Cl)c(S(=O)(=O)N2CCOCC2)c1 | -15.7
CC(NS(=O)(=O)c1ccc(OCC(=O)NCc2cccnc2)cc1)c1ccccc1 (centres unmarked) | 13.4
C#CCOCCOCCOCCNc1nc(N2CCN(C(=O)[C@H](CCC(=O)O)n3cc(C(N)Cc4ccc(O)cc4)nn3)CC2)nc(N2CCN(C(=O)[C@H](Cc3cc4ccccc4[nH]3)n3cc(C(N)CC(C)C)nn3)CC2)n1.Cl (some centres unmarked) | 4.72
COc1ccc(OCC(=O)Nc2ccc(Cl)cc2)cc1 | 6.34
COc1cccc(CNC(=O)C2CC(=O)N(C3CCCCC3)C2)c1 (centres unmarked) | 6.07
Cc1cc(C)cc(C(=O)Nc2ccncc2)c1 | 7.83
CC(C)OCCCNC(=O)c1c(N)n(/N=C/c2ccccn2)c2nc3ccccc3nc12 | 8.35
O=C(/C=C/c1ccc(S(=O)(=O)N2CCOCC2)cc1)OCC(=O)c1ccc([N+](=O)[O-])cc1 | -11.9
COC(=O)c1cccc(NC(=O)C2COc3ccccc3O2)c1C (centres unmarked) | -2.79
COCCNC(=O)c1cc(-c2cccs2)on1 | -2.54
Cc1cc(OCC(=O)NC(C)(C)C)ccc1Cl | 7.04
O=C1c2ccccc2NC2CCCCCN12 (centres unmarked) | 3.56
CCOc1ccc2nc(N=Nc3c(O)[nH]c(=O)[nH]c3=O)sc2c1 | -0.012
O=C(O)C(=O)O.c1ccc(CC2CCN(Cc3ccccn3)CC2)cc1 | -23.1
CCN(CC)CCn1c2c(c(SCC(=O)Nc3nc4ccc(C)cc4s3)nc1=O)CCC2 | -30.4
Cc1ccc(N2C(=O)N(CC(=O)N(C)Cc3ccccc3)C(=O)C2C)cc1 (centres unmarked) | -21.7
CCOC(=O)N1CCC(NC(=O)c2ccc(CS(=O)(=O)c3ccc(OC)cc3)o2)CC1 | -33.4
CCOc1ccc(C(=O)NCC(=O)OCC(=O)NC2CCCC2)cc1 | 0.69
CCc1ccc(/C(C)=N/NC(=O)c2ccccn2)cc1 | 8.04
